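Tested at 5 concentrations; 48 h exposure; 96-well plates; endpoints linearly interpolated, else capped at highest concentration. The concentration for 50% growth inhibition is given as GI50. TGI: total growth inhibition.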 Numbered stars: 1 amine (or outer) side, 2 acyl side, 3 side chain; on linkers, the order of the positions; unused ones are H or OH. Bridge positions count the residues as written; N and C are the ends. Square brackets hold non-standard residues; d marks the D form. Peptide text beside a SMILES is read from it. * marks the point of attachment. Phe(3-Me) = Cc1cccc(C[C@H](N)C(=O)O)c1; NH(4-Cl-2-F-phenyl) = Fc1cc(Cl)ccc1N*; Pro(4R-Me) = C[C@H]1CN[C@H](C(=O)O)C1; Propanoyl(3-NMe2) = CN(C)CCC(=O)*; Hyp = O=C(O)[C@@H]1C[C@@H](O)CN1; aThr = C[C@H](O)[C@H](N)C(=O)O; Pip = O=C(O)[C@@H]1CCCCN1; CO = O=C([*:1])[*:2]
System: NCI-H322M lung
Test: NCI anticancer screen, dose series, 48 h

Structure (SMILES)	TGI	GI50
COC(=O)[C@@H]1C[C@]2(CC=C(C)C)c3ccccc3N(S(=O)(=O)c3ccccc3)[C@@H]2N1C(=O)OC	> 100 µM	
O=C([O-])c1ccccc1Nc1ccccc1[O-].[Ni+3].[OH3+].[OH3+].[OH3+]	> 100 µM	> 100 µM
CN1CCCCC1CCN1c2ccccc2Sc2ccc(S(C)=O)cc21 (centres undefined)	> 100 µM	
CCn1cnc2c(NC(C)=O)ncnc21	> 100 µM	
O=C1OC(c2ccccc2)N/C1=C\c1ccc2c(c1)OCO2 (centres undefined)	> 100 µM	
Nc1c(C(=O)Nc2ccccc2)sc2nc3c(cc12)CCCC3	> 100 µM	8.97 µM
CN(C)/C=N/c1nc2ncn(CCOC(=O)c3ccccc3)c2c(=O)[nH]1	> 100 µM	
Cc1ccc(NC(=O)c2nc(S(C)=O)oc2-c2ccc(F)cc2)cc1Nc1nccc(-c2cccnc2)n1 (centres undefined)	15.4 µM	4.61 µM
Cc1cccc(C[C@H](NC(=O)Nc2ccc(Cl)cc2F)C(=O)N[C@@H]2C(=O)N3C[C@H](OC(=O)CCN(C)C)C[C@H]3C(=O)N3CCCC[C@H]3C(=O)N[C@@H](C)C(=O)N3C[C@H](C)C[C@H]3C(=O)O[C@H]2C)c1 ({NH(4-Cl-2-F-phenyl)-CO}-[Phe(3-Me)][aThr][Hyp](Propanoyl(3-NMe2))[Pip]A[Pro(4R-Me)]; ester 2-C)	5.42 µM	0.958 µM
O=C1O[C@H]2[C@@H]3OC(=O)c4cc(O)c(O)c(O)c4-c4c(cc(O)c(O)c4O)C(=O)OC[C@H]2O[C@@H](OC(=O)c2cc(O)c(O)c(O)c2)[C@@H]3OC(=O)c2cc(O)c(O)c3c2[C@@H]2C1=CC(=O)C(O)(O)C2(O)O3 (some centres undefined)	> 100 µM	
Cc1cc2[nH]c3c(C#N)c(-c4ccccc4)c(CN4CCOCC4)c(=O)n3c2cc1C	> 100 µM	
COc1cc2c(cc1OC)C(Cc1c3ccccc3cc3ccccc13)N(C)CC2 (centres undefined)	59.8 µM	
CCOP(=O)(OCC)/C(C#N)=C/c1c(C)[nH]c2ccccc12	> 100 µM	
COc1cc([C@@H]2c3cc4c(c(O)c3C[C@H]3COC(=O)[C@@H]32)OCO4)cc(OC)c1O	> 200 µM	0.00887 µM
Cc1ccc(S(=O)(=O)n2cc(-c3nnnn3-c3ccc(Cl)cc3)c(=O)c3ccccc32)cc1	> 100 µM	> 100 µM
O=C1C(N2C(=O)c3ccccc3C2=O)CN1C(COCc1ccccc1)c1ccc(OCc2ccccc2)cc1 (centres undefined)	> 100 µM	
O=C(N/C(=C\c1ccccc1)C1Nc2ccccc2C(=O)O1)c1ccccc1 (centres undefined)	> 100 µM	
CC1Cc2cc(O)ccc2C2[C@@H]1C1CC[C@H](O)[C@@]1(C)C[C@@H]2O[N+](=O)[O-] (some centres undefined)	> 100 µM	
Cc1ccc(C)c(NC(=O)C(Cc2c[nH]c3ccccc23)NC(=O)OCc2ccccc2)c1 (centres undefined)	44.4 µM	
O=C(CN1CCN(c2ccc(Cl)cc2)CC1)N1CCN(c2nnc(-c3ccccc3)c(-c3ccccc3)n2)CC1	> 100 µM	> 100 µM
CC[C@@]1(O)C(=O)OCc2c1cc1n(c2=O)Cc2c-1nc1ccccc1c2/C=N\NC(=O)C(C)N (some centres undefined)	> 43.7 µM	
CCNc1ncnc2n[nH]nc12	> 100 µM	
COC(=O)c1ccc(C2SCC(=O)N2NC(=O)C(O)c2ccccc2)cc1 (centres undefined)	> 100 µM	> 100 µM
Cc1cc(-c2ccccc2)cc2[n+]1CC=C2	> 100 µM	

Structure (SMILES)	TGI	GI50
S=C1SC(c2ccc(Cl)cc2)(c2ccc(Cl)cc2)c2ccccc21	> 100 µM	
O=C(c1ccccc1)c1c(CNCc2ccccc2)n(C(=O)c2ccccc2)c2ccccc12	> 100 µM	
CCCCCCCCCC(CCCC(O)CC(=O)O)OC1OC(COC2OC(C)C(O)C(O)C2O)C(O)C(O)C1OC1OC(CO)C(O)C(O)C1OC1OC(C)C(O)C(O)C1O (centres undefined)	> 40 µM	> 40 µM
Cc1cc(NCCCCCCNc2cc(C)nc3ccc(Cl)cc23)c2cc(Cl)ccc2n1	> 100 µM	
Cc1nc(C)c(N2CCN(C#N)CC2)c(=O)[nH]1	> 100 µM	
Cc1ccc(C2=C(c3ccccc3)C(O)(c3ccc(C)cc3)C(c3ccccc3)=C2c2ccc(C)cc2)cc1	> 100 µM	
CC1=C2C(O)C(C(C)C(=O)NC(C)C)CCC2(C)C=CC1=O (centres undefined)	> 100 µM	
COc1ccc(C(=O)O)c(Cc2ccc3ccccc3c2)c1	> 100 µM	
O=C1OC2C(O)C(=O)OC2C1O (centres undefined)	> 100 µM	
CCOC1SC(SC)=NN1C(=O)C(OC(C)=O)C(OC(C)=O)C(OC(C)=O)C(OC(C)=O)C(=O)N1N=C(SC)SC1OCC (centres undefined)	> 100 µM	
Cc1cccc(NC(=O)CC#N)c1Cl	> 100 µM	
O=C(Nc1c(Cl)cc([N+](=O)[O-])cc1Cl)/C(=N\Nc1cccc(Cl)c1)c1c(O)c2ccccc2oc1=O	> 100 µM	
Nc1ccc(N)c2c1C(=O)c1c(N)ccc(N)c1C2=O	> 100 µM	
CN(C)CCC1(C2=CCCC2)CC/C(=C\c2ccccc2)C1=O (centres undefined)	30.3 µM	
Oc1cc2c(cc1O)-c1[nH]ncc1CC2	> 100 µM	
c1ccc(C2N3CCCCC3[C@@H]3c4[nH]c5ccccc5c4CCN23)cc1 (some centres undefined)	> 100 µM	
S=C(Nc1ccccc1)N1N=C2c3ccccc3CC[C@H]2[C@@H]1c1ccccc1	> 100 µM	
COC(Cc1ccccc1)NC(C)=O (centres undefined)	> 100 µM	
C=C1N(C)c2ccc(Cl)cc2C1(C)C	> 100 µM	22.5 µM
O=C1C[C@H]2[C@H](c3ccc(Br)cc3)[C@H]3C(=O)c4ccccc4NC(=O)[C@@H]3[C@@]2(O)c2ccccc2N1	72.4 µM	
C=C(C(=O)O)[C@@H]1C[C@@H]2O[C@H]1CC(C)=CCC/C(C)=C/CC[C@@]2(C)O	> 100 µM	
COc1ccc(-c2nnc(CCCCCCCCc3nnc(-c4ccc(OC)cc4)o3)o2)cc1	> 100 µM	
COc1ccc(/C=C/C(=O)c2ccc(Nc3ccnc4cc(Cl)ccc34)cc2)cc1	> 100 µM	> 100 µM
Cc1cc(C#N)c(Nc2c(C)cccc2[N+](=O)[O-])s1	> 100 µM	

Structure (SMILES)	TGI	GI50
COc1ccc(C#CCC(OC2OC(CO)C(O)C(O)C2O)C(O)c2ccc(OC)c(OC)c2)cc1OC (centres undefined)	> 100 µM	
CCOC(=O)C1(Cc2ccccc2)Cc2ccccc2C1=O (centres undefined)	> 100 µM	
CC(C)(C)NC1C2CCC(C)(C1O)C2(C)C (centres undefined)	> 100 µM	
CCc1n[nH]c(=O)n1NC(=O)/C=C\C(=O)O	> 100 µM	
CC(=O)OCc1cn(S(=O)(=O)c2ccc(C)cc2)cn1	> 100 µM	
O=CC1(C2(C=O)c3ccccc3-c3ccccc32)c2ccccc2-c2ccccc21	7.92 µM	3.52 µM
CC(=O)Nc1ccc(-c2nc3ccccc3s2)cc1O	> 100 µM	
O=C1NN(c2ccccc2)C(=O)C2C3c4ccccc4C(c4ccccc43)C12 (centres undefined)	> 100 µM	
COc1cc2c(cc1O)C(C)Cc1cc3c(cc1N(C)CC2)OCO3 (centres undefined)	> 58.6 µM	
CN(C)/C=N/S(=O)(=O)c1nn2c(C=O)c(-c3ccc(-c4ccc([N+](=O)[O-])cc4)o3)nc2s1	28.3 µM	
BrC12c3ccccc3Sc3ccccc3C1(Br)c1ccccc12 (centres undefined)	> 100 µM	
C[n+]1ccc(-c2c3nc(c(-c4ccc5c(ccc[n+]5C)c4)c4ccc([nH]4)c(-c4cc[n+](C)cc4)c4nc(c(-c5ccc6c(ccc[n+]6C)c5)c5ccc2[nH]5)C=C4)C=C3)cc1	> 50 µM	38.5 µM
Cc1cc(N=Nc2ccc(N=Nc3c(O)c(S(=O)(=O)O)cc4cc(S(=O)(=O)O)ccc34)cc2C)ccc1N=Nc1ccc2cc(S(=O)(=O)O)cc(S(=O)(=O)O)c2c1	> 100 µM	
CCOC(=O)/C=C/c1ccccn1	> 100 µM	
COc1cc(C=O)c(-c2cc3c(cc2C=O)OCO3)c(OC)c1OC	> 290 µM	
Cn1c(=S)sc2nc3ccccc3n2c1=S	29.2 µM	
CN1CCN(c2ccc(-n3cc(C(=O)O)c(=O)c4cc(F)c(N5CCN(C)CC5)cc43)nc2)CC1	> 100 µM	
CCCCOC(=O)C1CN2C(=NC1(C(F)(F)F)C(F)(F)F)Sc1ccccc12 (centres undefined)	> 100 µM	
NC[C@@](O)(c1ccc(Cl)cc1)c1ccc(-c2cn[nH]c2)cc1	6.03 µM	1.08 µM
CC(C)=CCC[C@H](C)[C@H]1CC[C@@H](C)c2cc(O)c(C)cc21	32 µM	
O=C1C(Cl)=C(Nc2cccc(O)c2)C(=O)N1c1cccc(Cl)c1Cl	49.7 µM	17.4 µM
CCN(CC)C1=Nc2ccccc2-n2c(C)cnc2C1	> 100 µM	
CCN(CC)c1nc(N(C)C)c2cc(OC)ccc2n1	> 100 µM	
N/N=C(\C(=O)Nc1ccc([N+](=O)[O-])cc1)C(C1=Nc2cc([N+](=O)[O-])ccc2NC1)[N+](=O)[O-] (centres undefined)	> 100 µM	

Structure (SMILES)	TGI	GI50
Cc1ccccc1/C=C1\CN(C(=O)OC(C)(C)C)C/C(=C\c2ccccc2C)C1=O	11.4 µM	3.38 µM
O=c1cccc(C#CC#C/C=C/CO)o1	7.56 µM	2.89 µM
Cc1c2cccc-2c(OCCO)cc2c1[nH]c1ccccc12	> 41.4 µM	
COc1ccccc1Cn1c2c(c3c(C(=O)NCCN(C)C)c(O)ccc31)C(=O)c1ccccc1C2=O	3.54 µM	
CC(C)Oc1ccc(C(=O)N[C@H](CNC(=O)CN(C)C)Cc2ccc(-c3cn4cccc([C@H](C)O)c4n3)cc2)cc1Cl	20.1 µM	0.0511 µM
OCSc1nn(CO)c(=S)s1	> 100 µM	
CNC1C(OC2C(OC3C(O)C(O)C(O)C(O)C3O)OC(C)C2(O)CO)OC(CO)C(O)C1O (centres undefined) (tested in a mixture with another compound)	> 100 µM	
O=C(/C(=C/c1cccs1)c1ccccc1)c1ccccc1	> 100 µM	
O=C(CCl)Nc1ccc2c(c1)C(=O)c1ccc(NC(=O)CCl)cc1C2=O	4.82 µM	1.81 µM
C[C@]12CCC(=O)C=C1CC[C@@H]1C2CC[C@]2(C)Nc3c(ncn3-c3ccc(F)cc3)CC12 (some centres undefined)	> 100 µM	
C[C@]12CC[C@H]3[C@@H](C[C@@H]4N=C(c5ccc(O)cc5)S[C@@]45C[C@H](O)CC[C@]35C)[C@@H]1CC[C@@H]2O	> 100 µM	31.1 µM
CC(=O)NC(CCCCNC(=O)N(C)N=O)C(=O)NCc1ccccc1 (centres undefined)	> 100 µM	
CC(=O)OCC1OC(Sc2ccccn2)C=CC1OC(C)=O (centres undefined)	> 100 µM	
C[C@@]1(N2C(=O)OC[C@@H]2c2ccccc2)C(=O)N([C@H](CC(=O)N2CCC(N3CCCCC3)CC2)C(=O)NCc2cccc(C(F)(F)F)c2)[C@@H]1/C=C/c1ccccc1	6.05 µM	2.23 µM
COC(=O)C(Cc1nc2ccccc2[nH]c1=O)C(=O)C(=O)Nc1ccc(OC)cc1[N+](=O)[O-] (centres undefined)	> 100 µM	
COc1ccc(-c2coc3cc(OC)cc(O)c3c2=O)cc1	> 100 µM	
COc1c(O)cc(C(=O)O[C@@H]2Cc3c(O)cc(O)cc3O[C@@H]2c2cc(O)c(O)c(O)c2)cc1O	59.8 µM	
Cc1nc2c(ncn2CCO)c(=O)[nH]1	> 100 µM	
O=C1c2ccccc2C(=O)c2c1ccc1c2OCO1	> 100 µM	
N#CC1=C(c2ccccc2)C(O)(c2ccccc2)NC1=O (centres undefined)	> 100 µM	
CCN(CC)CCOc1ccc(C(=C2CCCCC2)c2ccc(OCCN(CC)CC)cc2)cc1	2.94 µM	

— PubChem BioAssay (NCI)
